# PubChem BioAssay AID493208 (National Center for Advancing Translational Sciences (NCATS), 2011)
# Among all 44,000 compounds or so, about 340 (0.77%) were called active. Another 5% or so got no clear call; they are omitted. The call rests on the fitted dose curve; in most records, active means well fitted inhibition curve with a large enough effect; inconclusive means small, poorly fitted or top-dose-only effect; inactive means flat fitted curve, though single readings scatter. This is one part of the list.
# Test: Acumen qHTS Assay for Inhibitors of the mTORC1 Signaling Pathway in MEF (Tsc2-/-, p53-/-) Cells: Sytravon; further: nearly all actives have a fitted effect of over 50% in size
# Conditions: phospho-rpS6 immunofluorescence/PI, 24 h; series mostly up to 38.3 µM; activity change, negative = inhibition: at the top concentration
# Text: NIH Molecular Libraries Probe Production Centers Network [MLPCN] NIH Chemical Genomics Center [NCGC] MLPCN Grant: NS059428-01 Assay Submitter (PI): Blenis, John; Hoffman, Greg; Harvard University NCGC Assay Overview: The mammalian target of rapamycin (mTOR) is an intracellular serine/threonine kinase Aberrant regulation of mTOR signaling plays a causative role in a number of human diseases, including cancer, benign tumors such as lymphangioleiomyomatosis (LAM) and Tuberous Sclerosis Complex (TSC), and metabolic diseases such as diabetes and obesity. This project aims to identify inhibitors of ribosomal protein S6 (rpS6) phosphorylation. The phosphorylation of rpS6 is a key event downstream of mTOR activation. The assay uses a phospho-specific antibody of phospho-rpS6 to detect inhibitors of mTOR activation. Mutations in the Tsc1 and Tsc2 genes are the underlying genetic lesions responsible for TSC, causing constitutive activation of the mTORC1 pathway and leading to profound effects on cell metabolism. Aberrant metabolism in cancer has recently received significant attention as a target to develop therapeutic agents in the treatment of cancer.1 As Tsc2-/- cells have lost the ability to respond to energy and growth factor deprivation, these cells are unable to properly down regulate cellular biosynthetic processes in response to metabolic stress, and are thus extremely sensitive to glucose deprivation-induced death.2 A central goal of this project is to explore the unique cell survival and metabolic properties of cells with Tsc1 or Tsc2 by screening for compounds that selectively target the Tsc2-/- MEFs by screening both Tsc2-/- and WT MEF cell lines. We hope to better understand these aspects of TSC physiology in order to exploit them for therapeutic benefit.
# NCGC Acumen Assay Protocol Summary: For quantitative high throughput analysis of mTORC1 signaling, we developed a cell-based assay for immuno-fluorescence based detection of rpS6 phosphorylation on the Acumen Explorer that will be used a platform for the primary small molecule screen. Mouse embryonic fibroblasts (MEFs) are cultured in 1536-well plates using DMEM + 10% FBS. Twenty-four hrs after plating, test compounds (solubilized in DMSO) are delivered and incubated with the cells for 24 hrs at 37 degree Celsius. Following the incubation, media with compound is aspirated and the cells are fixed in 4% paraformaldehyde (PFA) containing PBS + 0.2% TX-100. Next, PFA is aspirated, cells are washed two times with PBS plus 0.2% TX-100 and the cells are blocked for 1 hr at room temperature (blocking buffer: LiCOR Blocking Buffer plus 0.2% TX-100). […] Cells are washed two times with PBS plus 0.2% TX-100, and stained with 10 uM propidium iodide (PI) for 20-25 minutes for cell number measurement (1:500 dilution of Hoescht staining is also added for IN Cell imaging). The plates are scanned on the Acumen Explorer laser scanning instrument (TTP Labtech) using the 488nm laser for simultaneous excitation of the Alexa-488 and PI. […] The normalized phospho-S6 staining is calculated as the ratio of the integrated Alexa 488 intensity divided by the integrated PI intensity for the single concentration rapamycin control (7.5 nM) and DMSO columns. […] Inhibition of the pathway is defined based on the normalized phospho-S6 intensity in rapamycin treated cells. Active cells are defined as those with a normalized phospho-S6 staining above this threshold, and each treatment is reported as the % positive cells in the well, where thresholds are defined by selecting wells with the highest and lowest signal and differentiating between the % non-active and % active populations. In addition to the pathway specific phospho-S6 endpoint, the number of PI stained cells from the Acumen is recorded as a measure of cell viability. The primary screen was performed with a MEF cell line in a defined genetic background, Tsc2-/-, p53-/- cell line stably transfected with an empty vector control (Tsc2-/- MEF).
row,Compound,"activity change, negative = inhibition"
1,Cc1ccc(-c2nc3ccc(Br)cn3c2Nc2ccc3c(c2)OCO3)o1,inactive: 0.126%
2,CCc1ccccc1NC(=O)CSc1nc2c(oc3ccccc32)c(=O)n1-c1ccccc1,inactive: -3.14%
3,COc1ccccc1Cn1c(CNS(=O)(=O)c2ccc(Cl)s2)nc2cccnc21,inactive: -12.9%
4,CCOc1ccccc1CNS(=O)(=O)c1cnc(N)nc1,inactive: -2.45%
5,CCOC(=O)c1cccc(NC(=O)Cc2ccc(NC(=O)N3CCCCc4ccccc43)cc2)c1,inactive: 1.62%
6,COc1ccc(-n2c(CCC(=O)O)ccc2-c2ccccc2)cc1,inactive: 0.434%
7,CC(=O)c1cccc(NC(=O)Cn2cnc3c2c(=O)n(C)c(=O)n3C)c1,inactive: -16.7%
8,CCOC(=O)c1c(C)[nH]c(C)c1S(=O)(=O)N1CCCC(C(=O)N2CCN(c3ccc(Cl)cc3)CC2)C1 (stereo not given),inactive: 0%
9,CCOC(=O)c1[nH]c(C)c(CCC(=O)N2CCN(c3cc(Cl)ccc3C)CC2)c1C,inactive: -8.11%
10,Cc1nnc(N2CCN(c3ccccc3)CC2)c2c1nnn2Cc1ccc(F)cc1,inactive: -1.73%
11,O=C(Nc1ccccc1C(=O)OCc1cc(=O)n2c3c(sc2n1)CCCC3)c1ccc(Cl)cc1,inactive: 0%
12,Cc1ccc(C)c(NC(=O)CCn2cnnn2)c1,inactive: -2.25%
13,O=C1Nc2c(c(=O)[nH]c(=O)n2-c2ccc(Cl)cc2)C1(NS(=O)(=O)c1ccccc1)C(F)(F)F (stereo not given),inactive: -2.13%
14,CCOC(=O)c1ccc(N2CCN(c3cccc(Cl)c3)CC2)c(NC(=O)Nc2ccc(Cl)cc2)c1,inactive: 10.3%
15,O=C(Nc1ccc(F)cc1F)c1ccc(-c2ccccc2)s1,inactive: -3.95%
16,Cc1ccc2nc(CSc3nnc(NC(=O)COc4ccccc4F)s3)cc(=O)n2c1,inactive: 0.179%
17,Nc1c(C(=O)c2ccc3c(c2)OCO3)sc(Nc2ccccc2F)c1S(=O)(=O)c1ccccc1,inactive: -9.75%
18,COc1ccc(C)cc1N(CC(=O)N1CCC(C)CC1)S(=O)(=O)c1ccc(C)cc1,inactive: 2.44%
19,COc1ccc(C2CC(=O)c3cc(-c4nc(-c5cccc([N+](=O)[O-])c5)cs4)c(=O)n(-c4cc(C)cc(C)c4)c3C2)cc1 (stereo not given),inactive: -9.67%
20,CCOC(=O)CSc1nc2sc3c(c2c(=O)n1CC)CCCC3,inactive: -5.94%

row,Compound,"activity change, negative = inhibition"
1,Cn1c(=O)c2c(-c3ccccc3Br)n(C(C)(C)C)cc2n(C)c1=O,inactive: -6.75%
2,O=C(CCCn1c(=O)c2sccc2n(Cc2c(F)cccc2Cl)c1=O)NCc1ccccc1,inactive: -1.09%
3,CCCC(=O)Nc1ccc2nn(-c3ccc(CC)cc3)nc2c1,inactive: -20.7%
4,Cc1cnc2c(c1SCC(=O)N(C)c1ccccc1)c(=O)n(C)c(=O)n2C,inactive: -0.107%
5,Cc1ccc(N2CCN(Cc3nnc(-c4ccc5c(c4)OCO5)o3)CC2)c(C)c1,inactive: -1.39%
6,Cc1cc(C)cc(NC(=O)CSCc2cc(=O)c3cc(Cl)ccc3[nH]2)c1,inactive: -6.05%
7,Cc1cccc(NC(=O)Cn2nc(C)c3nn(-c4ccc(Cl)cc4)c(C)c3c2=O)c1C,inactive: -6.1%
8,COc1ccccc1N1CCN(C(=O)c2ccc3c(c2)N(Cc2ccccc2)C(=O)c2ccccc2S3(=O)=O)CC1,inactive: 0.753%
9,CC1(C)CC(=O)c2cc(-c3nc(-c4ccc(Br)cc4)cs3)c(=O)n(-c3ccccc3)c2C1,inactive: -13.5%
10,O=C(c1cnc(N2CCOCC2)c2ccccc12)N1CCN(c2ccc(F)cc2)CC1,inactive: 0.4%
11,Cc1c(-c2nc(-c3ccc4c(c3)[nH]c(=O)n4C)no2)cccc1[N+](=O)[O-],inactive: -0.976%
12,Cc1cccc(-c2noc(CN(C(C)C)S(=O)(=O)c3ccc(Br)cc3)n2)c1,inactive: 3.97%
13,O=C1c2ccccc2-c2onc3c(Br)cc(NC4CCCCC4)c1c23,inactive: 3.9%
14,O=C(CSc1nnc(-c2cccs2)o1)Nc1cccc(C(F)(F)F)c1,inactive: 1.42%
15,Cc1cccc(N2C(=O)CSC23C(=O)N(CC(=O)NCCc2ccccc2)c2ccccc23)c1 (stereo not given),inactive: -9.31%
16,COCCNC(=O)CSc1nc2cc3c(cc2c(=O)n1CCCCCC(=O)NCCc1ccc(OC)c(OC)c1)OCO3,inactive: 0.312%
17,COc1ccc(-c2cc(C(F)(F)F)n3nc(-c4ccc(Cl)cc4)cc3n2)cc1OC,inactive: -1.78%
18,O=C(Cc1ccccc1)NC1CC(=O)N(c2ccc3c(c2)OCCO3)C1 (stereo not given),inactive: 0.848%
19,Cc1c(CC(=O)N2CCCCC2)c(=O)oc2c(C)c(O)ccc12,inactive: 2.9%
20,Cc1cc2c(cc1S(=O)(=O)CCC(=O)NCc1ccccc1)OCC(=O)N2,inactive: 5.08%

row,Compound,"activity change, negative = inhibition"
1,O=C(OCc1ccccc1F)c1ccc(-c2nnn(Cc3ccccc3)n2)cc1,inactive: -5.72%
2,CCN(CC)c1ccc(NC(=O)C(NS(=O)(=O)c2cccs2)C(C)C)c(C)c1 (stereo not given),inactive: -16.9%
3,CN(C(=O)c1cnc(N2CCOCC2)c2ccccc12)c1ccccc1F,inactive: -0.582%
4,COc1ccc(-n2nnnc2C2CCN(S(=O)(=O)c3cccc(Cl)c3C)CC2)cc1,inactive: -7.72%
5,COC(=O)c1ccc2c(c1)N(CC(=O)Nc1ccc(C)c(C)c1)C(=O)c1ccccc1S2,inactive: 3.42%
6,CCS(=O)(=O)N1CCc2cc(C(=O)Nc3cc(C)cc(C)c3)ccc21,inactive: -0.332%
7,Cc1ccc(C)c(N2CCN(C(=O)NCc3noc4ccccc34)CC2)c1,inactive: -8.08%
8,Cc1cc2oc(C(=O)Nc3sc4c(c3C(=O)NCC3CCCO3)CCCC4)cc(=O)c2cc1C (stereo not given),inactive: 0.329%
9,Cc1ccc2nc(Nc3cccc(C(F)(F)F)c3)c3nnnn3c2c1,inactive: -1.31%
10,Cn1c(=O)c2c(-c3ccc(Cl)cc3)ccnc2n(C)c1=O,inactive: -10.2%
11,O=S(=O)(NCC(c1ccco1)N1CCN(c2ccc(F)cc2)CC1)c1cc(F)ccc1F (stereo not given),inactive: -3.49%
12,COc1ccc(CCNC(=O)c2ccc3[nH]c(C)c(C)c3c2)cc1OC,inactive: -4.86%
13,CCc1c(C)sc(NC(=O)c2cc(-c3ccc(OC)c(OC)c3)on2)c1C#N,inactive: -1.57%
14,COc1ccc(OC)c(CCNc2nc3cc(OC)c(OC)cc3c3nc(-c4cccnc4)nn23)c1,inactive: -1.13%
15,CCCCN(CC)CCNC(=O)CN1C(=O)COc2ccc(S(=O)(=O)N3CCOCC3)cc21,inactive: -7.29%
16,CCOc1ccccc1CNC(=O)CN1C(=O)c2cccnc2Oc2ccc(Cl)cc21,inactive: -3.69%
17,COc1ccc(S(=O)(=O)N2CCCCC2)cc1C(=O)NC1CCS(=O)(=O)C1 (stereo not given),inactive: -1.85%
18,Cc1ccc(C(=O)c2cn(Cc3ccccc3)c3c(F)cc(F)cc3c2=O)cc1,inactive: -15.6%
19,O=C(Nc1ccccc1)c1ccc(Cl)c(S(=O)(=O)Nc2ccccc2)c1,inactive: -3.27%
20,CCS(=O)(=O)N1CCC2(CC1)OC(=O)C(C)=C2C(=O)NCc1ccc(OC)c(OC)c1,inactive: -3.51%
